Data from the supplement of paper PMC11417369.
± gives the standard deviation of the averaged measurements. The list shows a part of the results.

System: PfAP2-LT AP2 domain (GST-tagged)
Experiment: gcPBM binding intensity (ln(normalized median fluorescence intensity)); higher = stronger DNA binding
Procedure, shortened: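 After 1 h on an Agilent 4 × 180k array of primer-extended double-stranded 36-bp intergenic genomic probes and negative controls, bound GST-tagged P. falciparum DNA-binding domains were detected with Alexa488 anti-GST antibody and scanned at 488 nm. The domains had been expressed in E. coli, and binding took place in 1× PBS with 1% milk, 0.2 mg/ml BSA, 0.5% salmon testes DNA and 0.03% Triton X-100. Binding intensity is the highest Masliner-normalised natural-log median intensity across replicate spots of either probe orientation.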

Sequence | gcPBM binding intensity (ln)
GATTATATTATATATTAAATATAAATATGTATTATA [TGCATGCA_negctrl_site66] | 8.39 ± 0.47
AATGGAAATGTAAAATGTACAGGACGCACACACATA [XGTACX_site7788] | 9.57 ± 0.4
AAAAAAAATTAAAATAAATTAAAAAGTAATTATATA [GTGCAC_negctrl_site615] | 8.22 ± 0.56
AATGAGAAGGACTGCACACTAAAATGGAAGGAGAAA [CACACA_site1575] | 9.15 ± 0.45
ATATATAATATTTTTATTTTTATTTTTTTTTTATGA [TGCATGCA_negctrl_site577] | 8.34 ± 0.49
TACCATGTTCAAATTACACACATATAATGTAATATA [CACACA_site5150] | 8.9 ± 0.33
ATTAAGTTCAAATGTAGTACGTGTAAAAAAAAAAAA [XGTACX_site1578] | 8.79 ± 0.42
TTTATATATGTAAATGCACACATATGTGTATATACT [CACACA_site8493] | 9.24 ± 0.45
AAAATAAATAAATAAATAAATATATATATATATATA [XGTACX_negctrl_site345] | 9.16 ± 0.3
TATAGGTATATATTATGTACTTATAATTATATAGAT [XGTACX_site1912] | 8.62 ± 0.43
TTATTACATGTTACTTAACACACATCTGGTGAAATA [CACACA_site7939] | 8.88 ± 0.47
GGAAAGACAGTTCACAGTACCCAGTAAACTCTACGG [XGTACX_site2557] | 8.93 ± 0.51
AAAATATAGTAATATATATATGTATATTATTTGTGG [CACACA_negctrl_site1590] | 8.73 ± 0.47
GGGTCAAGTAAGCTGTTCCTCTTTTTCTTTCTCACT [GTGCAC_negctrl_site473] | 9.09 ± 0.5
TGTCTTTAAATTTCTCAACACACAGTTATAAAAAAT [CACACA_site8930] | 8.46 ± 0.42
TATAAATTTAAAATGACACACACTAATATTATTTAA [CACACA_site8334] | 8.96 ± 0.36
ATACGATTGAAACATTGTACATGAATATAAAAAAAT [XGTACX_site5704] | 8.95 ± 0.42
TTTATTTATAGACACACACACAAAAAAAAAAAAAAA [CACACA_site7280] | 9.1 ± 0.42
TTGTATATATATGGAAAAATATATATATATATATAT [GTGCAC_negctrl_site591] | 9.25 ± 0.45
TTTTTTTTTTTTTTTATAAAAGATAATTTTTTTTTA [CACACA_negctrl_site133] | 7.99 ± 0.4
CATTTATATTATAAATGTACAAAGTTCGTTTGTTCC [XGTACX_site1305] | 8.7 ± 0.5
TCAAAGCACACATACACACACATATAGATTTATATA [CACACA_site6272] | 9.73 ± 0.16

Sequence | gcPBM binding intensity (ln)
TCTTCATAAAAATAAAGTACATTATATATATAAATA [XGTACX_site3775] | 8.32 ± 0.5
TAAATAAATATATATTCACACACAAACATATATATA [CACACA_site9332] | 9.2 ± 0.26
TAAACGTTAGTATGTGTGCACATTAGTAATTTAAAA | 9.13 ± 0.44
ATTAATATTATTAGAAGTACTAATAGTAGTATAACT [XGTACX_site1325] | 8.69 ± 0.33
TTTTTATTATTCTTAAGGATATAACAAAAAAGAAAA [XGTACX_negctrl_site584] | 8.04 ± 0.36
TTCTAAAAAAATAAAATTATCAAGGTTTTTAAACGT [CACACA_negctrl_site308] | 8.37 ± 0.46
ACTCTTGATCTGAATGCACACAATAAATTATATAAA [CACACA_site1438] | 8.79 ± 0.33
ATATATTATATATATTGTACATGTAAAATTTTAAAA [XGTACX_site7197] | 8.79 ± 0.45
TATGTATTTAAATTAACACACATATGTGGTTAATAG [CACACA_site5697] | 8.8 ± 0.31
AAAAATTTGGCATACACACACACACCCACACCCACA [CACACA_site587] | 10.03 ± 0.042
ACATATATATATATATATATATATATATCATTATGT [CACACA_negctrl_site724] | 9.51 ± 0.26
ATTTAAAAAAAAAAAACACACATGTGAATAGAAAAG [CACACA_site3323] | 8.94 ± 0.42
TCTAAAAATAAGAACACACACATATAAGCATATAAA [CACACA_site2274] | 9.29 ± 0.37
AAAACGCTACATAATTGTACATGTAGAAATAAAAGC [XGTACX_site2895] | 9.34 ± 0.4
TACTGCCTTCCATACCCACACACTTCCCATATATTT [CACACA_site2705] | 9.21 ± 0.45
AGTATAATAATATTTACACACGCATATGTTATATAT [CACACA_site1476] | 9.25 ± 0.27
CATACAAATTAATATGTACACACAAATATATATATA [CACACA_site8605] | 9.18 ± 0.32
TTTTACAATAATAAGTAGATCTAAATAAAGATTTAA [GTGCAC_negctrl_site547] | 8.38 ± 0.59
AGTAGTCTGGAGAAAAGTACATAGTATCTGGTAACC [XGTACX_site2024] | 8.81 ± 0.58
TTCCAAAATTGCACATGTACAAAATTCTCCAATATG [XGTACX_site3419] | 8.68 ± 0.41
TTTATATTATTTAATGAGAAATAATTATAAACAATT [TGCATGCA_negctrl_site65] | 8.15 ± 0.36
TTTTTTTTTTTTTTTTGTACATATTTTAATTTGTTT [XGTACX_site6297] | 8.46 ± 0.5
